Source: PubChem BioAssay AID360 (National Center for Advancing Translational Sciences (NCATS), 2006)
The whole screen tested about 48,000 compounds, of which about 550 (1.1%) were called active. Another 4% or so got no clear call; they are omitted. Rule as the data show it: active = potency below about 15 µM; inconclusive = mostly about 16 µM to 33 µM; inactive = weaker than that. The list shows a part of the results.

Molecular target: Lysosomal acid glucosylceramidase (Homo sapiens) (UniProt P04062)
Experiment: Glucocerebrosidase;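 also: the screen sought inhibitors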
Conditions: purified enzyme, resorufin glucoside fluorescence (screen aimed at inhibitors), 20 min; series mostly up to 77 µM
Outline: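 Compounds titrated against 0.2 nM normal enzyme, 30 uM resorufin beta-D-glucopyranoside substrate, citrate/phosphate buffer with taurocholate and tween-20, pH 5.9. Reaction ran 20 min at room temperature; fluorescence (Ex 548/Em 600) gave AC50.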
Potency is read from the fitted curve at half-maximal effect.

Sequence of UniProt P04062 (P04062 whole entry, looked up): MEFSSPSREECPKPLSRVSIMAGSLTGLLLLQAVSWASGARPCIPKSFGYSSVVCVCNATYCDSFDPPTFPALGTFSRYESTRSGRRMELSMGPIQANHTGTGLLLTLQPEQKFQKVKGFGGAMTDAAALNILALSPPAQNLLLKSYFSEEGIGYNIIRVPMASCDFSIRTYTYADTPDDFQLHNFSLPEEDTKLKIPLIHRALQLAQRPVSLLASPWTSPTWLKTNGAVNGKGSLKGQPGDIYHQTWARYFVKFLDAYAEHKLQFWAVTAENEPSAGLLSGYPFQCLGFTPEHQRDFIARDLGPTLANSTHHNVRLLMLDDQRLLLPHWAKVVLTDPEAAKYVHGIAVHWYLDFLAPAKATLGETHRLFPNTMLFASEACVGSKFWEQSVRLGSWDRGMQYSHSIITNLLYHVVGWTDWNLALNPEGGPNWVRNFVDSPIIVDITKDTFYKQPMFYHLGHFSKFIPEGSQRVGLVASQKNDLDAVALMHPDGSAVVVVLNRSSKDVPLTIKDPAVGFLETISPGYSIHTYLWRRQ

Potency, inactive:
CCOC(=O)c1c(C)oc2ccc(O)c(CN(C)C)c12 > 76.9 µM, COc1ccc(OC)c(N(CC(=O)Nc2ccc(NC(C)=O)cc2)S(C)(=O)=O)c1 > 76.9 µM, COc1ccc(OC)c2[nH]c(=O)c(CCNC(=O)CC(C)C)cc12 > 76.9 µM, c1ccc(-c2cc(N3CCOCC3)nc(-c3ccccc3)n2)cc1, COc1cc(NC(=O)c2cnn3c(C)cc(C)nc23)c(OC)cc1Cl > 76.9 µM, COc1cccc(NC(=O)CSc2nnc(CNC(=O)c3ccccc3)n2C)c1 > 76.9 µM, COc1cccc(Nc2nc(N)nc(C(F)(F)F)n2)c1 > 76.9 µM, C=CCn1c(COc2cccc3ccc(C)nc23)nnc1SCC(=O)OC > 76.9 µM, Cc1nc(SCCO)c2oc3ccccc3c2n1 > 76.9 µM, Cc1cc(C)n(-c2nc3nonc3nc2-n2nc(C)cc2C)n1 > 76.9 µM, O=C(NCc1ccccc1)C1CCCN(C(=O)Nc2ccccc2)C1 (stereo unspecified) > 76.9 µM, Cc1cnn(C(=O)c2oc3ccccc3c2C)c1 > 76.9 µM, CCOC(=O)CCn1nc(-c2ccc(Cl)cc2)cc1N > 76.9 µM, CN(C)c1ccc(CNCCC2(O)CCOC(C)(C)C2)cc1 (stereo unspecified) > 76.9 µM, Cc1nc2nc(-c3cccs3)cn2nc1C > 76.9 µM, FC(F)(F)c1ccc(-n2ccnc2)nc1 > 76.9 µM, CCC1(C)Cc2ccccc2/C(=C/C(=O)N2CCCCC2)N1 (stereo unspecified) > 15.4 µM, CCOC(=O)c1c(-c2cccs2)csc1NC(=O)c1ccco1 > 76.9 µM, Cc1ccc(NC(=O)CSc2n[nH]c(-c3ccncc3)n2)cc1 > 76.9 µM, CCC(=O)N1c2ccc(S(=O)(=O)CCC(=O)N3CCn4c3nc3ccccc34)cc2CC1C (stereo unspecified) > 76.9 µM, CC1(C)Cc2nc3sc4c(=O)[nH]cnc4c3cc2CS1 > 76.9 µM, Cc1ccc(-n2c(=O)cc(N3CCc4ccccc4C3)[nH]c2=O)cc1 > 76.9 µM, CN(c1ccccc1C(=O)Nc1ccc2c(c1)OCO2)S(C)(=O)=O > 76.9 µM, O=C(c1ccc(S(=O)(=O)N2CCCCC2)cc1)N1CCCc2ccccc21 > 76.9 µM, Cc1nnc2sc(-c3ccncc3)nn12 > 76.9 µM, CCn1cnc2c1c(=O)n(Cc1csc(-c3ccccc3)n1)c(=O)n2Cc1ccccc1 > 76.9 µM, COc1ccccc1-c1nnc(SCC(=O)N2CC(C)CC(C)C2)o1 (stereo unspecified) > 76.9 µM, Cc1ccc(C)c(N2CCN(c3cc(C)nc4nnnn34)CC2)c1 > 76.9 µM, Cc1ccc(-c2cc(-c3ccc(C)o3)nc(N)c2C#N)cc1 > 76.9 µM, Cc1ccccc1NC(=O)CSc1nnc(-c2ccoc2C)n1CCc1ccccc1 > 76.9 µM, O=S(=O)(Nc1ccc2c(c1)OCCO2)c1cccs1 > 76.9 µM, Cc1ccc(S(=O)(=O)N2CCCC(c3nnc4n3-c3ccccc3SC4)C2)cc1 (stereo unspecified) > 76.9 µM, CCOC(=O)c1cnn(CCOC(=O)C2CC2)c1NC(=O)C1CC1 > 76.9 µM, COC(=O)c1ccc(NC(=O)Cc2ccccc2)cc1 > 76.9 µM, COCC(C)n1c(C)cc(C(=O)COc2ccc(S(=O)(=O)N3CCOCC3)cc2Cl)c1C (stereo unspecified) > 76.9 µM, CCCC(=O)N=C1SC2CS(=O)(=O)CC2N1c1ccc(CC)cc1 (stereo unspecified) > 76.9 µM, COc1ccc(OCC(O)CNC(=O)c2ccc(Br)cc2)cc1 (stereo unspecified) > 76.9 µM, Cc1ccsc1C(=O)Nc1ccc(C(=O)O)cc1 > 76.9 µM, Cc1cc(=O)n2nc(N3CCCC(C(=O)NCc4ccco4)C3)sc2n1 (stereo unspecified) > 76.9 µM, CCC(=O)N1CCN(c2ccccc2NC(=O)Cc2ccc(Cl)cc2)CC1 > 76.9 µM, Cc1cc(C)nc(SCc2nc(N)nc(-c3ccccc3O)n2)n1 > 76.9 µM, COc1ccc(OC)c(NC(=O)C2CCCN(S(=O)(=O)c3c(C)noc3C)C2)c1 (stereo unspecified) > 76.9 µM, CCCCS(=O)(=O)C(=C1Nc2ccccc2N1)S(=O)(=O)CCCC > 76.9 µM, S=c1nc(-c2ccccc2)n(CCCN2CCOCC2)c2c1CCCC2 > 76.9 µM, O=C(CN1CCN(c2ccc(F)cc2)CC1)N1CCOCC1 > 76.9 µM, Cc1cc(C)nc(SCC(=O)Nc2ccc(N3CCOCC3)c(Cl)c2)n1 > 76.9 µM, CCCc1[nH]nc2c1C(c1cc(OC)cc(OC)c1)C(C#N)=C(N)O2 (stereo unspecified) > 76.9 µM, O=C(CN1CCCC1)Nc1ccc(NC(=O)Nc2ccccc2)cc1, CCCCn1nnnc1NCc1cccnc1 > 76.9 µM, O=C(Cc1nn[nH]n1)NCc1ccccc1Cl > 76.9 µM, COc1ccccc1NC(=O)c1cc(C(=O)O)ccc1C(=O)O > 76.9 µM, O=C(CSc1nnc(CNc2ccccc2)o1)N1CCN(C(=O)c2ccco2)CC1 > 76.9 µM, Cn1c(=O)oc2cc(S(=O)(=O)N3CCN(Cc4ccc5c(c4)OCO5)CC3)ccc21 > 76.9 µM, Oc1cnc2ccccc2c1CN1CCOCC1 > 76.9 µM, CC[C@H](C)[C@H](NS(=O)(=O)c1ccc(C)cc1)C(=O)N1CCC(C(=O)N[C@H](C(=O)O)C(C)C)CC1 > 76.9 µM, COCC(=O)N(Cc1ccccc1)c1ccccn1 > 76.9 µM, S=c1[nH]nc(-c2ccccc2)n1CC1CCCO1 (stereo unspecified) > 76.9 µM, COc1ccccc1-n1c(C)nnc1SCC(=O)Nc1cccc(C(C)=O)c1 > 76.9 µM, O=C(NCC(F)(F)F)Nc1ncccn1 > 76.9 µM, C=CCN(C(=O)CN1CCOCC1)c1nc(C)c(-c2ccccc2)s1 > 76.9 µM, C/C=C/c1ccc(OCCCN2C(=O)NC(C)(C)C2=O)c(OC)c1 > 76.9 µM, CC(=O)N1CCN(S(=O)(=O)c2cccc(C(=O)Nc3ccc4c(c3)CCC4)c2)CC1 > 76.9 µM, COc1ccc2nc(NC(=O)C(NS(=O)(=O)c3cccs3)C(C)C)sc2c1 (stereo unspecified) > 76.9 µM, CCc1c(C)c2ccc(O)c(CN(C)C)c2oc1=O > 76.9 µM, COc1cccc(N2CCN(C3OC(=O)c4ccccc43)CC2)c1 (stereo unspecified) > 76.9 µM, COc1cc(C2=NOC(C(=O)N3CCN(c4ccc(F)cc4)CC3)C2)cc(OC)c1OC (stereo unspecified) > 76.9 µM, CC(=O)N1CC=C2C(C#N)=C(N)C(C#N)(C#N)C(C)C2C1 (stereo unspecified) > 76.9 µM, N#Cc1cc2c(nc1SCC(O)CS(=O)(=O)Cc1ccccc1)CCCC2 (stereo unspecified) > 76.9 µM, O=C(NCC1COc2ccccc2O1)c1cn(Cc2ccc(F)cc2)nn1 (stereo unspecified) > 76.9 µM, CCOC(=O)c1ccc(Cn2c(-c3ccccc3)nnc2-c2ccccc2)o1 > 15.4 µM, CN1CCN(C(=O)c2cnn(-c3ccccc3)c2NC(=O)c2cccs2)CC1 > 76.9 µM, Nc1c(S(=O)(=O)c2cccs2)c2nc3ccccc3nc2n1/N=C/c1cccc(O)c1 > 76.9 µM, CCOc1ccc(-n2nc(C(=O)N3CCOCC3)c3ccccc3c2=O)cc1 > 76.9 µM, CN(C)c1cccc(N=C2C=C(N3CCOCC3)CC(C)(C)C2)c1 > 76.9 µM, CC(=O)N1CCN(C(=O)CCc2c[nH]c3ccccc23)CC1 > 76.9 µM, COc1ccc(N2CCN(C(=O)CSc3nnnn3-c3ccc4c(c3)OCCO4)CC2)cc1 > 76.9 µM, CCOc1ccccc1-n1c(CN2CCN(C(=O)c3ccco3)CC2)nc2ccccc2c1=O > 76.9 µM, CCOc1cccc2cc(C(=O)N3CCN(C/C=C/c4ccccc4)CC3)c(=O)oc12 > 76.9 µM, O=C(O)CCC(NS(=O)(=O)c1ccc(-c2ccccc2)cc1)C(=O)O (stereo unspecified) > 76.9 µM, O=C(NCCN1CCOCC1)c1cc(-c2ccccc2)on1 > 76.9 µM, CSC1=C(C#N)C(c2ccc(C)cc2)C2=C(CCCC2=O)N1 (stereo unspecified), CCOC(=O)c1c(Nc2nc(C)c(C(=O)NC)s2)sc(C)c1C > 76.9 µM, N#CCSCC(=O)Nc1ccccc1 > 76.9 µM, CC1CCC/C(=C\Nc2ccccc2C(=O)O)C1=O (stereo unspecified) > 76.9 µM, Cc1ccccc1NC(=O)Cn1c(C)nc2ccc(NC(=O)C3CC3)cc2c1=O > 76.9 µM, COC(=O)N1CCN(S(=O)(=O)c2ccc(F)cc2)CC1 > 76.9 µM, CC(=O)c1ccc(OCCCC(=O)NCC(c2ccco2)N(C)C)cc1 (stereo unspecified) > 76.9 µM, N#CCSc1nnc(Cc2ccc3c(c2)OCO3)o1 > 76.9 µM, Cc1cccc(NC(=O)c2cc(NC(=O)C3CC=CCC3C(=O)O)ccc2N2CCOCC2)c1 (stereo unspecified) > 76.9 µM, Cc1ccc(NS(=O)(=O)c2cccc(C(=O)n3ncc(C#N)c3N)c2)c(C)c1 > 76.9 µM, Nc1nc(-c2cccnc2)nn1C(=O)c1ccco1 > 76.9 µM
